Test results: the supplement of paper PMC4166925
± gives the standard deviation of the averaged measurements. In all, about 33,000 sequences were measured (“E-score (dimensionless, -0.5 to 0.5)”: median about -0.049, highest 2% from about 0.37 on). The list shows a part of the results.

Each sequence was assayed on T1, PmTbr T-box DNA-binding domain (GST fusion) (assay: PBM E-score of 8-mer (E-score (dimensionless, -0.5 to 0.5)); Tbr is Tbrain of the sea star Patiria miniata (Pm) or the sea urchin Strongylocentrotus purpuratus (Sp); higher = stronger binding preference; most listed sequences are background and not binding sites). Settings: the construct has about 5 more residues each side.
T1 sequence: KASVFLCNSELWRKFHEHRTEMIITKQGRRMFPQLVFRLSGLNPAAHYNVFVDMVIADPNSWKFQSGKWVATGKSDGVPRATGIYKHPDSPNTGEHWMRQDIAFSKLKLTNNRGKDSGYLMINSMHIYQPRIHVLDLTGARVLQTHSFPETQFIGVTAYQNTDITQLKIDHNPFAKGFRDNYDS
Method in brief: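 Primer extension turned Universal Agilent oligonucleotide arrays double-stranded. They were incubated with 200 nM protein in PBS (pH 7.5); the protein was a GST-fused Tbr T-box DNA-binding domain expressed in BL21 E. coli at 20 °C and purified on glutathione. Every ungapped 8-mer was scored from the scanned, quantified probe intensities, and the Universal PBM Analysis Suite gave each an enrichment E-score averaged over duplicate arrays.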

Sequence | PBM E-score of 8-mer
CGTTCCCA | 0.00839 ± 0.055
CAACAATG | -0.00548 ± 0.031
ATAGTCCA | -0.172 ± 0.023
AGCATCAG | -0.172 ± 0.002
CTTGAAAG | -0.174 ± 0.1
CTATAGGC | -0.0995 ± 0.037
GCGCGAGC | 0.235 ± 0.055
CCACCGAG | -0.107 ± 0.017
ACTTGTAT | -0.126 ± 0.018
GGGCAACC | -0.247 ± 0.019
ACACTATG | 0.349 ± 0.028
AGCTCAAG | -0.169 ± 0.058
CCGCAAAC | -0.0182 ± 0.0088
TACCCAAA | -0.164 ± 0.0061
GGGGTGAC | 0.3431 ± 0.0017
CTGAGTTC | -0.0631 ± 0.02
CTCACTCC | 0.174 ± 0.071
GCACGCGA | 0.143 ± 0.018
CTAAGTCC | -0.257 ± 0.091
CCCTGGAA | -0.221 ± 0.0054
AGCACGGA | -0.134 ± 0.039
CGTTGTCC | -0.0685 ± 0.018

Sequence | PBM E-score of 8-mer
ACACACCC | 0.327 ± 0.015
TGGATAAA | -0.199 ± 0.014
ACGTATCC | -0.307 ± 0.029
CCCGGGAC | -0.164 ± 0.0078
TCACAAAA | 0.132 ± 0.083
CTTGTGTC | 0.122 ± 0.039
TCCATAGA | -0.0836 ± 0.042
GTACACTA | -0.147 ± 0.044
CCTGCCGA | -0.0434 ± 0.037
CTATGGCC | -0.148 ± 0.049
CCCGAGGC | 0.173 ± 0.016
ATGCCAAG | -0.216 ± 0.012
CCAACTCG | 0.083 ± 0.024
ACGGGTTA | -0.199 ± 0.043
TAGTGTGA | 0.446 ± 0.0044
AGTCGCGA | 0.357 ± 0.012
AGCTATCC | -0.334 ± 0.059
CTACACGC | 0.0918 ± 0.046
ACAAATGG | -0.0508 ± 0.12
CTGTACTA | -0.0788 ± 0.016
AAGTTACA | 0.0427 ± 0.067
CACATGGC | 0.213 ± 0.011

Sequence | PBM E-score of 8-mer
GATTAAAA | -0.0667 ± 0.028
AGAAGACC | -0.173 ± 0.008
AGGTTCAT | -0.07428 ± 0.00047
CGTAACTC | -0.28 ± 0.098
CCGCGTGC | 0.0114 ± 0.058
CATACCAC | 0.055 ± 0.054
GGCGGCCC | -0.171 ± 0.016
AACATTCA | -0.0317 ± 0.013
GTCGTTGA | 0.113 ± 0.0055
CCATTAGG | -0.2221 ± 0.0014
CGAACGAG | -0.103 ± 0.0025
CGAGAGAG | 0.0817 ± 0.016
AATACGAC | -0.00574 ± 0.041
AGCGGCTC | 0.0646 ± 0.0087
AATCTGGA | -0.213 ± 0.026
CCGGATAC | -0.261 ± 0.042
AATACATC | -0.109 ± 0.044
GGCCATAA | -0.0657 ± 0.044
ACTTACTA | -0.139 ± 0.014
ATACCCCA | -0.209 ± 0.058
CTTTCTAA | -0.264 ± 0.043
AAATCCCT | -0.112 ± 0.029

Sequence | PBM E-score of 8-mer
ACCCCACC | -0.00897 ± 0.0085
CAAGATCA | 0.055 ± 0.032
AGGATCAA | -0.16 ± 0.017
ATAATCTG | -0.149 ± 0.026
CGACTCAG | -0.0525 ± 0.0052
GCAAGGTA | 0.0665 ± 0.087
CCTATGAA | -0.158 ± 0.039
GGATACAA | -0.0441 ± 0.036
CAGCCCCA | -0.069 ± 0.039
GAGTCTCA | 0.1181 ± 0.00078
AGACATTA | -0.0752 ± 0.0077
TGGGGACA | -0.0424 ± 0.075
CAAAGGCG | 0.148 ± 0.013
ATTGTGAA | 0.225 ± 0.042
CGGACCGA | -0.17 ± 0.007
CCTTAAAC | -0.07 ± 0.037
ACCTCACA | 0.423 ± 0.0099
CACCGCGG | 0.0859 ± 0.036
ACCTCGAG | 0.163 ± 0.13
CATTATTA | -0.0445 ± 0.0018
